Some of the results follow. Most values come without repeats; read them as rough.
Tests used:
Assay in all cases: cell count relative to DMSO control; melanoma cells; higher = more viable cells
Conditions in all cases: library dose: standard library concentration; 72 h
G361 = tested on: G361
IPC-298 = tested on: IPC-298
IST-MEL1 = tested on: IST-MEL1
LB2518-MEL = tested on: LB2518-MEL
LOXIMVI = tested on: LOXIMVI
MEL-HO = tested on: MEL-HO
MZ2-MEL = tested on: MZ2-MEL
MeWo = tested on: MeWo
RPMI7951 = tested on: RPMI7951
RVH-421 = tested on: RVH-421
SkMel28 = tested on: SkMel28
SkMel2 = tested on: SkMel2
SkMel30 = tested on: SkMel30
SkMel5 = tested on: SkMel5
UACC257 = tested on: UACC257
UACC62 = tested on: UACC62
WM115 = tested on: WM115
WM1716 = tested on: WM1716
WM1745 = tested on: WM1745
WM3526 = tested on: WM3526
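Note: cells treated in 1,536-well plates, then fixed and DAPI-stained, with nuclei counted from automated high-throughput microscope images.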

SMILES | cell count (G361) | cell count (IPC-298) | cell count (IST-MEL1) | cell count (LB2518-MEL) | cell count (LOXIMVI) | cell count (MEL-HO) | cell count (MZ2-MEL) | cell count (MeWo) | cell count (RPMI7951) | cell count (RVH-421) | cell count (SkMel28) | cell count (SkMel2) | cell count (SkMel30) | cell count (SkMel5) | cell count (UACC257) | cell count (UACC62) | cell count (WM115) | cell count (WM1716) | cell count (WM1745) | cell count (WM3526)
CS(=O)(=O)c1ccc(C(=O)Nc2ccc(Cl)c(-c3ccccn3)c2)c(Cl)c1 [vismodegib] + C[As](C)SC[C@H](NC(=O)CC[C@H](N)C(=O)O)C(=O)NCC(=O)O [Darinaparsin] (first compound 5 µM, partner dose 2 µM) | 81.3% | 86.4% | 87% | 99.7% | 117% | 103% | 102% | 89.3% | 107% | 166% | 83.5% | 90.2% | 108% | 82.3% | 95.3% | 76.7% | 90.8% | 88.8% | 124% | 79.7%
CN(NC(=O)CC(=O)NN(C)C(=S)c1ccccc1)C(=S)c1ccccc1 + O=C(Oc1ccc([N+](=O)[O-])cc1)N1CCC(C(O)(c2ccc3c(c2)OCO3)c2ccc3c(c2)OCO3)CC1 [JZL184] (first compound 0.03 µM, partner dose 5 µM) | 61.9% | 74.6% | 36.4% | 2.69% | 61.3% | 80.1% | 95.7% | 11.2% | 47.1% | 45.4% | 6.52% | 66.3% | 79.5% | 69.2% | 97.5% | 68.8% | 30.6% | 99.8% | 18.9% | 89.8%
C/C(O)=C(\C#N)C(=O)Nc1cc(Br)ccc1Br + CC(C)CCN1c2nc(Nc3cc(F)c(O)c(F)c3)ncc2N(C)C(=O)C1C [BID1870] (first compound 10 µM, partner dose 1 µM) | 60.7% | 80.7% | 96.3% | 143% | 118% | 70.2% | 97.3% | 82% | 116% | 99.8% | 50.5% | 77.2% | 83.9% | 61.8% | 85.2% | 65% | 85.2% | 6.73% | 79.7% | 65.2%
CC[C@]1(O)C[C@H]2CN(CCc3c([nH]c4ccccc34)[C@@](C(=O)OC)(c3cc4c(cc3OC)N(C=O)[C@H]3[C@@](O)(C(=O)OC)[C@H](OC(C)=O)[C@]5(CC)C=CCN6CC[C@]43[C@@H]65)C2)C1 [vincristine] + C[As](C)SC[C@H](NC(=O)CC[C@H](N)C(=O)O)C(=O)NCC(=O)O [Darinaparsin] (first compound 0.0005 µM, partner dose 2 µM) | 19.6% | 50.4% | 34.3% | 51.8% | 60.9% | 40.3% | 32.2% | 21.7% | 13.4% | 10.3% | 24.7% | 12.4% | 33.5% | 19.3% | 49.4% | 38.5% | 23.3% | 14.5% | 43.2% | 28.1%
Cc1ccc(Nc2nccc(N(C)c3ccc4c(C)n(C)nc4c3)n2)cc1S(N)(=O)=O [Pazopanib] + Cn1cc(C2=C(c3cn(C4CCN(Cc5ccccn5)CC4)c4ccccc34)C(=O)NC2=O)c2ccccc21 [Enzastaurin] (first compound 2 µM, partner dose 4 µM) | 70.3% | 74.6% | 74.1% | 75.9% | 68% | 73.7% | 66.1% | 69.3% | 27.6% | 73.9% | 77.9% | 90.7% | 92.5% | 72.2% | 86% | 46.4% | 124% | 72% | 49.8% | 78.5%
C/C(O)=C(\C#N)C(=O)Nc1cc(Br)ccc1Br + O=c1cc(-c2cccc3c2Sc2ccccc2S3)oc(N2CCOCC2)c1 [KU55933] (first compound 10 µM, partner dose 5 µM) | 87.6% | 86.7% | 99.6% | 102% | 91% | 81.6% | 82.4% | 94.7% | 93.4% | 126% | 86.6% | 90.1% | 84.6% | 92.7% | 87.6% | 89.4% | 103% | 100% | 87.7% | 91%
CC1(C)NC(=O)N(c2ccc([N+](=O)[O-])c(C(F)(F)F)c2)C1=O [nilutamide] + C/C(O)=C(\C#N)C(=O)Nc1cc(Br)ccc1Br [LFM-A13] (first compound 5 µM, partner dose 10 µM) | 88.7% | 92.7% | 96.5% | 137% | 88.6% | 97.1% | 32.5% | 101% | 101% | 98.6% | 117% | 96% | 85.8% | 92.7% | 95% | 92.2% | 99.2% | 101% | 101% | 77.6%
CC1(C)CCC(c2ccc(Cl)cc2)=C(CN2CCN(c3ccc(C(=O)NS(=O)(=O)c4ccc(N[C@H](CCN5CCOCC5)CSc5ccccc5)c(S(=O)(=O)C(F)(F)F)c4)cc3)CC2)C1 + Cn1cc(C2=C(c3cn(C4CCN(Cc5ccccn5)CC4)c4ccccc34)C(=O)NC2=O)c2ccccc21 [Enzastaurin] (first compound 2 µM, partner dose 4 µM) | 35.4% | 67.4% | 21.5% | 17.7% | 44.5% | 42.4% | 69.7% | 78.1% | 11.4% | 6.89% | 10.8% | 16.4% | 74.1% | 89.3% | 33.4% | 72.6% | 92.1% | 32.7% | 13.6% | 77%

Source: the supplement of paper PMC4604168 (melanoma cell lines)
